Experimental data from PubChem BioAssay AID1159614 (National Center for Advancing Translational Sciences (NCATS), 2016).
Out of some 45,000 compounds screened, about 65 (0.1%) were called active. Calls come from the whole dose curve; as a rule, active = well fitted activation curve with a large enough effect; inconclusive = small, poorly fitted or top-dose-only effect; inactive = no such curve, though single readings can be large or run the other way. The list shows a part of the results.

Molecular target: Galactocerebrosidase (Homo sapiens) (UniProt P54803)
Sequence of UniProt P54803 (P54803 whole entry, looked up): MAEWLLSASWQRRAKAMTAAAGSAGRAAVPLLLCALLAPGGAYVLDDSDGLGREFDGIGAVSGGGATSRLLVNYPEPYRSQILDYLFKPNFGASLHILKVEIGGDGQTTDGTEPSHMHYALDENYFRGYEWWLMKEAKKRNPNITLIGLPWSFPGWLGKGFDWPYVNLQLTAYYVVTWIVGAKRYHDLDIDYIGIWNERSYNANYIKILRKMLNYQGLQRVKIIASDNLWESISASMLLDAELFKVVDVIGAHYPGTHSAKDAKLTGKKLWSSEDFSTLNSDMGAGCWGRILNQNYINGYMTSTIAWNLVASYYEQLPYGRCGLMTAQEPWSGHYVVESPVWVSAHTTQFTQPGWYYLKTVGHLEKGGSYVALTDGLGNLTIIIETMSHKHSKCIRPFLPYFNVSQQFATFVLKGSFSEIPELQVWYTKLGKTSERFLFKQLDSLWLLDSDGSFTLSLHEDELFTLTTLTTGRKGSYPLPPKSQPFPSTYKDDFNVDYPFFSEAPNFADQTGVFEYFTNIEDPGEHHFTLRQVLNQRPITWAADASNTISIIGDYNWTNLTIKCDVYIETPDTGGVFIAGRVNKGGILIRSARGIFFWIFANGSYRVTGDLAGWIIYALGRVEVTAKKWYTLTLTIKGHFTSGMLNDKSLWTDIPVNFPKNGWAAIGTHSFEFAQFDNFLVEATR
Assay: A Novel Cell-Based Assay to Identify Small Molecules for B -Galactocerebrosidase; note: 0% is about no effect; nearly all actives have a fitted effect of over 65% in size
Settings: 145M-Twi-hGALC-G270D cells (Twitcher mouse brain line with human GALC G270D), HMU-beta-Gal fluorescence, 48 h; series mostly up to 57.5 µM; activation: at the top concentration
Procedure, shortened: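 Mutant human GALC (G270D), stably expressed in a Twitcher mouse brain cell line lacking endogenous GALC, is measured in live-treated cells via 6-hexadecanoylamino-4-methylumbelliferyl-β-galactoside hydrolysis (0.1 mM final, pH 5.2) with fluorescent detection.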

activation, inactive:
Cc1cc(NC(=O)c2cccs2)cc(-c2nc3cc(Cl)ccc3o2)c1O -19.2%
CCCc1ccc(C2Sc3ccccc3NC3=C2C(=O)c2ccccc23)cc1 (stereo not given) -34.9%
Cc1ccc(C)c(NC(=O)c2ccc3nc(CCc4ccccc4)oc3c2)c1 -5.61%
O=C(CSc1n[nH]c(-c2ccccc2Cl)n1)N1CCN(c2ccccc2)CC1 0.746%
CCC(=O)NCc1cc(-c2nn(C)c(=O)c3ccccc23)ccc1OC -10.7%
CCCCn1c(SCC(=O)NCCCOC)nc2c(sc3ccccc32)c1=O -16.6%
CCn1c(=O)c2sccc2n2c(CCCC(=O)N3CCN(c4cc(Cl)ccc4C)CC3)nnc12 -3.72%
Cc1cc(C)c(NC(=O)CSc2ccc(-c3sc(-c4ccccc4)nc3C)nn2)c(C)c1 -4.56%
Cc1cc(C)c(NC(=O)CSc2nc3nc(C)cc(C)n3n2)c(C)c1 5.44%
CCN(CC)c1cc(C)c2cc(NC(=O)c3ccccc3OC)ccc2n1 -5.8%
CCCCOc1cccc(C2c3c(oc4ccccc4c3=O)C(=O)N2c2ccccn2)c1 (stereo not given) -8.7%
COc1ccccc1N1CCN(c2ncccc2-c2nc(-c3ccc(Cl)cc3)no2)CC1 -10.9%
CCc1ccc(C(=O)c2cn(CC(=O)Nc3ccc(OC)c(OC)c3)c3ccc(C)cc3c2=O)cc1 -5.75%
O=C(CSc1nc(-c2ccc(F)cc2)[nH]c1-c1ccccc1)NCC1CCCO1 (stereo not given) -14.7%
COc1ccc(-c2nnc(SCC(=O)NCc3ccc(C)cc3)nc2-c2ccc(OC)c(OC)c2)cc1OC -5.67%
COc1ccc(CCNC(=O)c2ccc3c(c2)N(Cc2ccccc2F)C(=O)c2ccccc2S3(=O)=O)cc1OC -1.9%
Cc1ccc(CN(Cc2ccco2)C(=O)COc2cc(C)c(Cl)c(C)c2)cc1 -4.31%
CCOC(=O)c1cnc2c(ccc3ccccc32)c1Nc1cccc(OC)c1 -17.5%
O=C(NCCc1ccccc1)c1cc(S(=O)(=O)N2CCCCC2)c[nH]1 -1.69%
O=c1c2c(-c3ccccc3)ccnc2[nH]n1-c1ccccc1 -12.3%
COCCN1C(=O)c2[nH]nc(-c3ccccc3O)c2C1c1ccc(Cl)c(Cl)c1 (stereo not given) -5.64%
O=C(CCN1N=C(c2ccccc2)CCC1=O)NCCc1ccc(Cl)cc1 -16.1%
Cc1nn(C(=O)c2c(F)cccc2F)c(C)c1S(=O)(=O)N1CCOCC1 -1.67%
CCCC1=Nc2cc(C(=O)NC(C)c3ccccc3)ccc2Sc2ccc(C)cc21 (stereo not given) -1.25%
Cc1cc(C(F)F)n2nc(C(=O)Nc3c(C)cccc3C)nc2n1 0.612%
Cc1cccc(N2CCN(C(=O)c3cc4c(=O)oc5ccccc5c4s3)CC2)c1C 6.22%
CCOc1ccc(N(CC(=O)NCc2ccccc2Cl)S(=O)(=O)c2c(C)[nH]c(=O)[nH]c2=O)cc1 -6.3%
CC(=O)Nc1ccc(NC(=O)CSc2nc3ccccc3nc2N2CCOCC2)cc1 -12.8%
Oc1c(C(c2ccccc2Cl)N2CCCC2)sc2nc(-c3ccco3)nn12 (stereo not given) -7.57%
CCOc1ccc(C(=O)c2cn(Cc3ccccc3OC)c3ccc(F)cc3c2=O)cc1 -10.1%
COc1ccc(S(=O)(=O)N2CCC(Oc3ccc(-n4cnnn4)cc3)CC2)cc1OC -12.5%
COc1ccc(-n2c(CC3C(=O)N(C)c4ccc(C)cc43)nc3ccccc3c2=O)cc1 (stereo not given) -10.3%
CCc1ccc(NC(=O)CN(c2ccc(OC)cc2)S(=O)(=O)c2c(C)[nH]c(=O)[nH]c2=O)cc1 -10.5%
Cc1ccccc1C(=O)Nc1nnc(S(=O)(=O)N2c3ccccc3CC2C)s1 (stereo not given) -9.69%
Cc1nn(-c2ccccc2)c2nc(C3CC3)cc(C(=O)Nc3ccccc3F)c12 -1.08%
Cc1ccc(CNC(=O)CSc2cc(C)[nH]c(=O)n2)cc1 -10%
COc1ccc(-c2noc(CNC(=O)c3ccco3)n2)cc1 -14%
O=C(NCc1ccco1)c1ccc2c(c1)N(Cc1cccc(Cl)c1)C(=O)c1ccccc1S2(=O)=O -14.7%
COc1ccc(CCNc2ncnc3c2cnn3-c2ccc(C)cc2)cc1 -4.36%
O=C(O)[C@H](O)c1ccccc1 -16%
Fc1ccc(CN2CCc3nc(Nc4ccccc4)ncc3C2)cc1F -1.88%
CN1C(=O)c2ccccc2Sc2ccc(NC(=O)COc3ccc(F)cc3)cc21 2.09%
COc1ccc(C(c2c(O)cc(C)n(Cc3ccco3)c2=O)N2CCCCC2)cc1OC (stereo not given) -7.78%
C(=C\c1ccccc1)/CN1CCN(C(c2ccccc2)c2ccccc2)CC1 -20.5%
CC1CCN(C(=O)CSc2nc(-c3ccccc3)no2)CC1 -5.04%
Cc1c(NS(=O)(=O)c2ccccc2)cc(C(C)C)c(O)c1S(=O)(=O)c1ccc(Cl)cc1 -13%
COc1cc(C(=O)N2CCC(c3nc4ccccc4o3)CC2)cc(OC)c1OC -14.8%
COc1cc(Cl)c(C)cc1NC(=O)c1ccc2c(Cl)c3c(nc2c1)CCC3 -12.6%
CCN(CC)CC(=O)Oc1ccc(NC(C)=O)cc1 -4.48%
CCOc1cccc(CC(=O)N2CCc3c([nH]c4ccccc34)C2c2ccc(Cl)cc2)c1OCC (stereo not given) -23.6%
CCOC(=O)c1cccc(NC(=O)c2ccc3c(Cl)c4c(nc3c2)CCC4)c1 8.02%
O=C(NCCCN1CCN(c2ccc(F)cc2)CC1)Nc1ccc(Cl)cc1 -24.2%
CCOC(=O)c1c(NC(=O)c2ccccc2Cl)sc2c1CCCC2 -13.3%
COCCNC(=O)c1c(C)oc2nc(C)nc(N3CCOCC3)c12 -9.45%
Cc1ccc2c(c1)NC(c1cccnc1)=NC(c1ccc(F)cc1)=N2 -14.7%
Cc1ccc(C)c(NC(=O)Cn2c(=O)n(Cc3ccco3)c(=O)c3oc4ccccc4c32)c1 -10.9%
Cc1ccc(-c2nnc(SCc3ccccc3C#N)o2)cc1 -4.81%
Cc1ccc(CN2C(=O)C(O)(c3c[nH]c4ccccc34)c3cc(Cl)ccc32)cc1 (stereo not given) -13.4%
COc1cccc(-c2nc(CS(=O)(=O)CC(=O)NCc3ccc(C)cc3)c(C)o2)c1 -21%
COc1ccc2c(c1)c(CC(=O)O)c(C)n2C(=O)c1ccc(Cl)cc1 -11.8%
Cc1cccc(OCC(=O)OCc2cc(=O)n3nc(C4CCCCC4)sc3n2)c1 -19.2%
CCOC(=O)C(CC)n1nc(C)n2c(cc3occc32)c1=O (stereo not given) -7.12%
COc1ccc(C(=O)COC(=O)c2cccc(NC(=O)c3ccc(OC)c(OC)c3)c2)cc1 -16.4%
Nc1nc2ccc(OC(F)(F)F)cc2s1 -13.5%
Oc1cc(O)c2c(c1)O[C@H](c1ccc(O)c(O)c1)[C@H](O)C2 -30.8%
O=C(NC1CCCCCC1)C1CCN(C(=O)N2CCOc3ccccc32)CC1 -6.57%
Cc1ccc(S(=O)(=O)NCC(c2ccc(N(C)C)cc2)N2CCOCC2)cc1 (stereo not given) -18.7%
CN1CCC(=C2c3ccccc3CCc3cccnc32)CC1 -2.56%
COc1ccc(C(=O)c2cn(Cc3ccc(F)cc3)c3ccc(C)cc3c2=O)cc1 -12.3%
Cc1csc2nc(-c3cccc(NC(=O)c4ccccc4Cl)c3)cn12 -9.06%
Cc1ccc(-c2nc3ccccn3c2Nc2ccc3c(c2)OCO3)cc1 -14.3%
COc1ccnc2c1CCCCC2S(=O)c1nc2ccccc2[nH]1 (stereo not given) -18.7%
COc1cc(/C=C(\C#N)c2nc3ccccc3n2C)cc(OC)c1OC -17.1%
Cc1ccc(NC(=O)c2cc(S(=O)(=O)N3CCCC(C)C3)cn2C)c(Br)c1 (stereo not given) 17.8%
Cc1nc(C)c(-c2ccc(SCC(=O)Nc3ccc(F)c(F)c3)nn2)s1 5.42%
COc1cc(OC)c(N(C)C(=O)Cn2ncc3c([nH]c4ccccc43)c2=O)cc1Cl -7.25%
O=c1c2cc3c(cc2nc2sc(Nc4ccc(F)c(Cl)c4)nn12)OCO3 -12.4%
CCN1CCN(c2oc(/C=C/c3ccccc3OC)nc2C#N)CC1 -9.79%
Cn1c(=O)c2c(-c3cccc(Br)c3)n(CCO)cc2n(C)c1=O -16%
CCc1ccc(CN(Cc2cn[nH]c2-c2ccc(OC)cc2)C(=O)Nc2ccc(C)c(F)c2)cc1 -9.78%
CC1CCN(CCCNC(=O)c2cc(Sc3ccc(F)cc3)nc3ccccc23)CC1 -14.3%
Cc1ccc(-n2c(=O)c3ccc(C(=O)NCc4ccccc4Cl)cc3n(Cc3ccccc3F)c2=O)cc1 7.17%
CCOC(=O)c1c(-c2ccc(C)cc2)csc1NC(=O)c1nc(SCC)ncc1Cl -17.2%
COc1cccc(NS(=O)(=O)c2ccc3[nH]cc(C(=O)N4CCCCCC4)c(=O)c3c2)c1 8.08%
COc1ccc(Cn2c(=O)c3cccnc3n(Cc3cccc(OC)c3)c2=O)cc1 -10.3%
Cc1ccc(NC(=O)c2oc3ccccc3c2NC(=O)c2ccccc2C)cc1 -8.08%
O=C(NC1CC(=O)N(c2cccc(F)c2)C1)C1CC1 (stereo not given) 4.48%
CSc1nnc(NC(=O)Cc2coc3cc(C)ccc23)s1 11.6%
Nc1cccc(-c2cn3ccsc3n2)c1 -6.34%
CCCCC(CC)CNC(=O)C1CCN(S(=O)(=O)c2cccc3nsnc23)CC1 (stereo not given) -16.4%
Cc1ccc(C)c(N2CCN(CCCNC(=O)Cn3ncc4c5ccccc5n(C)c4c3=O)CC2)c1 -6.72%
O=S(=O)(c1ccccc1)c1nc(-c2cccs2)oc1SCc1ccccc1F -4.13%
Cc1ccccc1NC(=O)CCn1cnc2onc(-c3ccc(F)cc3)c2c1=O 16%
CCC(C)(C)C1CCc2c(sc(NC(=O)C3c4ccccc4Oc4ccccc43)c2C(N)=O)C1 (stereo not given) -15.6%
N#Cc1nc(-c2ccc(COc3ccc(Cl)cc3)o2)oc1N1CCN(c2ccccc2)CC1 -15.8%
Cc1ccc(NS(=O)(=O)c2c(C(=O)N3CCC(C)CC3)c(C)n(C)c2C)cc1Cl -36.6%
CCOc1ccc(NC(=O)CCn2cnc3onc(-c4ccc(F)cc4)c3c2=O)cc1 -13.8%
Cc1ccc(CN2CCSc3ccc(C(=O)N4CCN(c5cc(C)ccc5C)CC4)cc32)cc1 -16.8%
OC[C@H]1O[C@H](O[C@]2(CCl)O[C@H](CCl)[C@@H](O)[C@@H]2O)[C@H](O)[C@@H](O)[C@H]1Cl -15.3%
O=C(CSc1nc2c(oc3ccccc32)c(=O)n1-c1ccccc1F)Nc1ccccc1 -9.26%
